Measurements reported in PubChem BioAssay AID1347073 (National Center for Advancing Translational Sciences (NCATS), 2019).
About 200 (0.44%) of roughly 45,000 compounds were called active. Roughly 7% stayed inconclusive and do not appear here. Calls come from the whole dose curve; as a rule, active = well fitted activation curve with a large enough effect; inconclusive = small, poorly fitted or top-dose-only effect; inactive = no such curve, though single readings can be large or run the other way. The list shows a part of the results.

Assay: qHTS of TDP-43 Inhibitors: NCGC Sytravon Library Screen; note: 0% is about no effect; nearly all actives have a fitted effect of over 55% in size
Settings: yeast TDP-43 toxicity rescue, BacTiter-Glo growth, 24 h; series mostly up to 46.1 µM; growth rescue (activation): at the top concentration
Summary of the method: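 TDP-43-expressing yeast, pregrown in raffinose, seeded at OD600 0.02 in galactose medium with compound for 24 hr at 30 deg C. Growth read by BacTiter-Glo luminescence, so rescue of toxicity appears as activation.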

Row | SMILES | growth rescue (activation)
1 | CCc1ccc(C2C(C#N)=C(N)OC3=C2C(=O)CCC3)s1 (configuration not stated) | inactive: 5.21%
2 | O=C(c1nc2ccc(Cl)cn2c1CNCCc1cnccn1)N1CCCCCCC1 | inactive: 9.69%
3 | Cn1cccc1CNC(=S)Nc1ccccc1F | inactive: -68.5%
4 | CCCCNC(=O)COC(=O)c1c2c(nc3ccccc13)/C(=C\c1cccs1)CC2 | inactive: 25.5%
5 | CCCSc1ncc(Cl)c(C(=O)Nc2ccc(S(=O)(=O)N3CCCCC3C)cc2)n1 (configuration not stated) | inactive: 16.1%
6 | CC(=O)Nc1ccc(S(=O)(=O)NCc2nc(-c3ccccc3C)no2)cc1 | inactive: -7.53%
7 | COc1ccc(/C=N/NC(=O)CCn2nc(C)cc2C)cc1 | inactive: 5.94%
8 | NS(=O)(=O)c1ccc(CCNC(=O)Cc2ccc(S(=O)(=O)N3CCCC3)s2)cc1 | inactive: 10.2%
9 | CC1(C)CC(=O)C(CC(=O)N2CCC(Cc3ccccc3)CC2)C(=O)C1 | inactive: 0.17%
10 | O=C(O)c1ccc(CN2C[C@@H](CO)O[C@@H](n3cnc4c(NCc5ccco5)ncnc43)C2)cc1 | inactive: -3.2%
11 | COCCNC(=O)CCCC(=O)NCCOC | inactive: 7.01%
12 | COc1ccc(NC(=O)COc2ccccc2Cc2ccccc2)cc1S(=O)(=O)N1CCOCC1 | inactive: 23.6%
13 | COc1ccc(NS(=O)(=O)c2ccc(N3CCCC3)c(N)c2)cc1 | inactive: 4.94%
14 | COc1ccc(CCNC(=O)COC(=O)c2ccccn2)cc1 | inactive: -1.56%
15 | O=C1CC(c2ccccc2)CC(O)=C1C=NCCCO (configuration not stated) | inactive: -5.28%
16 | O=C(NC1CC1)c1sc2ccccc2c1Cl | inactive: 11.9%
17 | O=C(CSc1nc2ncc(Cl)cc2[nH]1)N1CCC(Cc2ccccc2)CC1 | inactive: -2.69%
18 | O=C(O)c1ccccc1N/N=C/c1cc(Br)cc(Br)c1O | inactive: -15.3%
19 | O=C(NC(=S)Nc1ccc(N2CCCC2)cc1)c1ccccc1[N+](=O)[O-] | inactive: -12.6%
20 | COCCOC(=O)C1=C(C)NC(=O)NC1c1ccco1 (configuration not stated) | inactive: 10%
21 | COc1ccc(CCC(C)N2CCC(CO)(Cc3ccccc3)CC2)cc1 (configuration not stated) | inactive: -0.202%
22 | CN(CCOc1ccccc1)CC(=O)Nc1ccc(Br)cc1F | inactive: 1.09%

Row | SMILES | growth rescue (activation)
23 | CCOc1ccc(NC(=O)COc2ccc(S(=O)(=O)N3CCCC3)cc2)cc1 | inactive: 0.921%
24 | COc1ccc(C2C(=O)c3ccccc3C2=O)cc1OC | inactive: 1.97%
25 | O=C(COc1cccc2cccnc12)N/N=C/c1cccn1-c1ccc(F)cc1 | inactive: 4.42%
26 | CC#CC[N+](C)(C)CCCCCCCC | inactive: 6.42%
27 | Cc1nnc(SCCn2c(Br)nc3c2c(=O)[nH]c(=O)n3C)s1 | inactive: -12.4%
28 | O=C(CN1CCC(C(=O)c2ccc3c(c2)OCCO3)CC1)Nc1ccccc1C(F)(F)F | inactive: 1.22%
29 | O=C(/C=C/c1ccc(Br)o1)Nc1nccs1 | inactive: 9.06%
30 | Cc1ccc(/C([O-])=C(/C(=S)NCc2ccccc2)[n+]2ccccc2)cc1[N+](=O)[O-] | inactive: -7.04%
31 | Cc1ccc(S(=O)(=O)N2CCN(C(=O)Cn3c(=O)oc4ccccc43)CC2)cc1 | inactive: 23.7%
32 | O=[N+]([O-])c1cc(Cl)c(O)c2ncccc12 | inactive: -91%
33 | O=C(N[C@@H](Cc1c[nH]c2ccccc12)C(=O)O)c1ccccc1Cl | inactive: 1.34%
34 | C=COCCNC(=O)C(=O)NC(C)C | inactive: 14.1%
35 | CC1CCC2(CC1)NC(=O)N(CC(=O)Nc1ccc3c(c1)OCCO3)C2=O (configuration not stated) | inactive: 10.2%
36 | COc1ccccc1CN1CC(C(=O)NCc2nc3ccccc3n2C)CCC1=O (configuration not stated) | inactive: 13.5%
37 | Cc1ccc2nc(-c3ccc4c(c3)NC(=O)CO4)cn2c1 | inactive: 7.69%
38 | Cc1ccc(NC(=O)Cn2ccsc2=N)cc1S(=O)(=O)N(C)C | inactive: -2.04%
39 | CCN(CC)S(=O)(=O)c1ccc(-c2cn3cc(Cl)ccc3n2)cc1 | inactive: 1.88%
40 | O=C(CN(Cc1ccccc1)S(=O)(=O)c1ccc(Cl)cc1)NCC1CCCO1 (configuration not stated) | inactive: 22.8%
41 | COc1cc2c(cc1OC)CN(C(=O)c1ccco1)CC2 | inactive: -13.1%
42 | Cc1ccc(C(C(=O)NC2CCCCC2)N(C(=O)c2csnn2)C2CC2)cc1 (configuration not stated) | inactive: 5.09%
43 | CC(C)N1CCC1(C)C(=O)Nc1ccccc1OC(F)F (configuration not stated) | inactive: 9.19%
44 | CC1CC2(C)Oc3ccccc3CC2C(C)C1CNCCCN(C)C (configuration not stated) | inactive: -4.76%

Row | SMILES | growth rescue (activation)
45 | CC12CCC(C(=O)N(c3ccc(Cl)cc3)C1=O)C2(C)C (configuration not stated) | inactive: 21.2%
46 | Cc1coc2c1c(C)cc1oc(=O)c(CC(=O)NCCCCCC(=O)O)c(C)c12 | inactive: 0.309%
47 | O=C(CCc1ccccc1)Nc1cc2c(cc1C(=O)O)OCCCO2 | inactive: 9.27%
48 | CCN(CC)S(=O)(=O)c1ccc(NC(=O)c2cc(=O)[nH]c3ccccc23)cc1 | inactive: 9.58%
49 | O=C(Nc1noc2ccccc12)c1ccc(F)cc1 | inactive: 14.8%
50 | CCn1cc(CN2CCC(C(=O)Nc3cccc(-c4cscn4)c3)CC2)cn1 | inactive: 1.4%
51 | COc1ccc(S(=O)(=O)Nc2ccccc2C)cc1C(=O)N1CCOCC1 | inactive: -10.6%
52 | NC(=O)C1CCCN(C(=S)NCc2ccc3c(c2)OCO3)C1 (configuration not stated) | inactive: 8.93%
53 | CC(=O)c1cccc(N(CC(=O)Nc2ccccc2F)S(C)(=O)=O)c1 | inactive: -22%
54 | Cc1cccc(N=Nc2cnc(N)s2)c1 | inactive: -0.581%
55 | CC(=O)OC1OCCOC1NC(=S)Nc1cccc(C(F)(F)F)c1 (configuration not stated) | inactive: 14.2%
56 | Cc1nn2c(NCCN3CCOCC3)c3c(nc2c1-c1ccccc1)CCCC3 | inactive: 0.552%
57 | C/C(=N\NC(=O)CSCc1ccc([N+](=O)[O-])cc1)c1cccc(Br)c1 | inactive: 19.5%
58 | O=C(Nc1cccc(Cl)c1Cl)c1cc(S(=O)(=O)NCCc2ccccc2)ccc1F | inactive: 16.4%
59 | CCOC(=O)C1=C(C)NC(C)=C(C(=O)OCC)C1C(=O)OCC(=O)N1c2ccccc2CC1C (configuration not stated) | inactive: 5.65%
60 | COc1sc(SC)cc1/C=N/NC(=O)c1ccncc1 | inactive: -25.9%
61 | NC1=NS(=O)(=O)NC1c1ccc(Br)cc1 (configuration not stated) | inactive: 7.92%
62 | CSC(=NCc1ccc(F)cc1)NS(=O)(=O)c1cccs1 | inactive: 20.6%
63 | O=C(N1CCOCC1)N1CCN(S(=O)(=O)c2ccc(Cl)cc2)C1 | inactive: 10.2%
64 | Nc1nc(SCc2nc3sc4c(c3c(=O)[nH]2)CCCC4)n[nH]1 | inactive: 14.3%
65 | O=C1C2C3C=CC(C4CC34)C2C(=O)N1/N=C/c1c[nH]c2ccccc12 (configuration not stated) | inactive: 1.57%
66 | CCc1ccccc1N(C)S(=O)(=O)c1ccc2[nH]cc(C(=O)N3CCc4ccccc43)c(=O)c2c1 | inactive: 0.759%

Row | SMILES | growth rescue (activation)
67 | CCOc1ccc(C(=O)N[C@H](C(=O)Nc2ccc(S(=O)(=O)Nc3nccs3)cc2)C(C)C)cc1 | inactive: 7.58%
68 | COc1ccc(NC(=O)CN(c2ccccc2)S(=O)(=O)N(C)C)cc1Cl | inactive: -9.16%
69 | Cc1nn(CC(=O)Nc2ccc(N3CCOCC3)cc2)c(C)c1Br | inactive: -6.72%
70 | COCCCNC(=O)c1ccc2nc([C@@H]3O[C@H](CO)[C@H](O)[C@H](O)[C@H]3O)[nH]c2c1 | inactive: 3.57%
71 | Cc1cc(C)nc(NS(=O)(=O)c2ccc(NC(=O)C3COc4ccccc4O3)cc2)n1 (configuration not stated) | inactive: -15.8%
72 | O=c1c(-c2ccc(Cl)cc2)[n+]([O-])c2ccccc2n1OCc1nc2ccccc2[nH]1 | inactive: -4.37%
73 | CCNC(=O)Cn1c(=O)c(=O)n(Cc2ccccc2)c2ccc(Cl)cc21 | inactive: 6.5%
74 | CC(=O)Nc1cc(-c2ccc(C(=O)NC3CC3)cc2)cn2c(-c3cccc(C(C)=O)c3)cnc12 | inactive: 6.72%
75 | Cc1sc(-c2ccncc2)nc1OC(=O)c1cc(Cl)cc(Cl)c1 | inactive: 13.9%
76 | CC(C)C(=O)N1CCC1(C)C(=O)Nc1cc(-c2ccccc2)nn1C (configuration not stated) | inactive: -3.87%
77 | Cc1cccc(N2CCN(C(=O)NC(C)c3ccc(F)c(F)c3)CC2)c1C (configuration not stated) | inactive: 21.1%
78 | COCc1c(C(=O)OCC(=O)NCCN2C(=O)CSC2=O)oc2ccccc12 | inactive: 3.27%
79 | CN(CCOc1ccccc1)C(=O)c1ccc(N2CCCC2)c([N+](=O)[O-])c1 | inactive: -6.04%
80 | O=C(N/N=C/c1cnc(N2CCCCC2)s1)c1ccc(Cl)cc1 | inactive: 7.98%
81 | O=C(CCCn1c(=O)c2sccc2n(Cc2ccc(F)cc2Cl)c1=O)NCc1ccc2c(c1)OCO2 | inactive: 12.5%
82 | Cc1csc(NC(=O)c2cc3c(C)nn(Cc4ccccc4Cl)c3s2)n1 | inactive: 3.33%
83 | CSc1c(CC(=O)Nc2ccccc2)n(Cc2ccccc2)c2ccccc12 | inactive: 7.18%
84 | CC1CCN(Cc2nnc(-c3cccc(Br)c3)o2)CC1 | inactive: -1.16%
85 | Brc1c(-c2ccc3c(c2)OCO3)nc2ncccn12 | inactive: 24.3%
86 | CC(C)COC(=O)c1ccc(N2C(=O)c3ccccc3C2=O)cc1 | inactive: 2.23%
87 | Cn1c(=O)n(Cc2ccco2)c(=N)c2c3c(sc21)CCCC3 | inactive: -2.14%
88 | Cc1c(C#N)c(N)nc2c3c(sc12)NC(=O)CC3c1ccc(Cl)cc1 (configuration not stated) | inactive: 9.06%

Row | SMILES | growth rescue (activation)
89 | COc1ccc(-c2cc(C(=O)OCc3ccccn3)c3ccccc3n2)cc1 | inactive: 13.4%
90 | O=C(c1ccc(NS(=O)(=O)c2cccs2)cc1)N1CCN(c2ccccc2Cl)CC1 | inactive: 3.06%
91 | COc1ccc(NC(=O)CS(=O)CC(=O)Nc2ccc(F)cc2F)cc1 (configuration not stated) | inactive: 4.32%
92 | Cc1cccc(C(=O)Nc2ccc(C(=O)N/N=C/c3ccc(C)o3)cc2)c1 | inactive: 0.218%
93 | COc1ccc(N(CC(O)CN2CCOCC2)S(=O)(=O)c2ccc(C)cc2)cc1 (configuration not stated) | inactive: -11.3%
94 | COc1cc(/C=C2/NC(=O)NC2=O)cc(Br)c1OCc1ccccc1 | inactive: -11.6%
95 | Nc1nc(C23CC4CC(CC(Cl)(C4)C2)C3)cs1 | inactive: 8.59%
96 | Cc1ccnc(N2CCCC(C(=O)Nc3cccc(C)c3C)C2)n1 (configuration not stated) | inactive: 6.77%
97 | Cc1ccc(NCc2cccn2-c2nnc(N3CCC(C(=O)NCCc4ccccc4)CC3)s2)cc1 | inactive: -11.5%
98 | N/C(Cn1cncn1)=N\NC(=O)C(=O)Nc1cccc(C(F)(F)F)c1 | inactive: 10.7%
99 | COc1ccc(C)cc1NC(=O)c1nc2nc(C)cc(C)n2n1 | inactive: 26.3%
100 | CCc1ccccc1NC(=O)c1cccc(Oc2ccc([N+](=O)[O-])cc2Cl)c1 | inactive: 7.99%
101 | CCOC(=O)C1(CCc2ccccc2)CCN(Cc2ccn[nH]2)CC1 | inactive: 4.88%
102 | O=C1CC(c2ccc(F)cc2)Sc2nc(-c3ccccc3)c(-c3ccccc3)n21 (configuration not stated) | inactive: -6.02%
103 | COc1cccc(CNC(=O)CCC2CCCN(C(=O)CCc3c(C)noc3C)C2)c1 (configuration not stated) | inactive: 0.363%
104 | CC1(Cc2ccccc2C#N)C(=O)Nc2ccc(-c3ccccc3)cc21 (configuration not stated) | inactive: 16.1%
105 | CCOc1ccc(NS(=O)(=O)c2cc(NC(=O)c3ccc(C)cc3)ccc2Cl)cc1 | inactive: 11.2%
106 | CS(=O)(=O)N(CCc1ccccc1)CC(=O)NCc1ccccc1 | inactive: -13.6%
107 | O=c1cnnc(Nc2cccc(C(F)(F)F)c2)[nH]1 | inactive: 5.35%
